PubChem BioAssay AID1508624 (National Center for Advancing Translational Sciences (NCATS), 2021)
Hit rate of the full screen: of about 48,000 compounds, about 120 (0.25%) were called active. Not shown: some 4% with an inconclusive outcome. Calls come from the whole dose curve; as a rule, active = well fitted activation curve with a large enough effect; inconclusive = small, poorly fitted or top-dose-only effect, or another doubt; inactive = no such curve, though single readings can be large or run the other way. Some of the results follow.

assay: Primary qHTS for Identification of Small Molecule Activators of Huntingtin-Antisense Promoter Activity; conditions: HEK293 HTT-AS promoter firefly luciferase reporter (activity 0% = vehicle and -100% = no light), 24 h; series mostly up to 57.5 µM; activity change, positive = activation: at the top concentration; note: nearly all actives have a fitted effect of over 55% in size
Procedure, shortened: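 Luminescence was read after Dual-Glo reagent and a 10 min room-temperature incubation. Values were normalized to vehicle (0% activity) and zero RLU (-100% activity). Reporter HEK293 cells had been exposed to compounds (up to 57.5 uM final) for 24 h.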

Compound | activity change, positive = activation
Cc1ccccc1NC(=O)CSc1nc(-c2ccccc2)cn1-c1ccccc1F | inactive: -12.1%
O=C(NC1CCCC1)c1ccc2c(=O)n(Cc3ccccc3)c(SCc3cccc([N+](=O)[O-])c3)nc2c1 | inactive: -9.73%
COCCNC(=O)CSc1nc2cc3c(cc2c(=O)n1CCCC(=O)NCc1ccc2c(c1)OCO2)OCO3 | inactive: -12.6%
COc1ccc(CNC(=O)CSc2ncc3c(n2)-c2cc(Cl)ccc2N(Cc2ccccc2)S3(=O)=O)cc1 | inactive: -6.47%
Cc1ccc(Cl)cc1N1CCN(C(=O)Cn2c(-c3cccs3)cc3cc(F)ccc32)CC1 | inactive: -14.6%
CCOC(=O)Cn1c(=O)cc(C(F)(F)C(F)(F)F)c2c(C)nn(CC)c21 | inactive: -3.06%
Cc1cc(OCCn2c(CCNC(=O)C3CCCCC3)nc3ccccc32)ccc1Cl | inactive: -46.8%
Cc1ccc(-c2nc(SCC(=O)NCC3CCCO3)c3c(=O)n(C)c(=O)n(C)c3n2)cc1 (configuration not stated) | inactive: 1.17%
CCOC(=O)CSC1=Nc2ccccc2C2=NC(CCC(=O)NCc3ccc(OC)cc3)C(=O)N12 (configuration not stated) | inactive: 10.7%
Cc1ccccc1N1CCN(S(=O)(=O)c2ccccc2)CC1 | inactive: -10.7%
Oc1c(C(c2ccccc2F)N2CCN(c3ccccc3F)CC2)sc2nc(-c3ccco3)nn12 (configuration not stated) | inactive: -16.2%
COc1ccc(C)cc1NS(=O)(=O)c1ccc2c3c(cccc13)C(=O)N2 | inactive: -41.3%
COc1ccccc1Cn1ccn(Cc2ccc(C)cc2)c(=O)c1=O | inactive: -5.89%
CN(C)CC[C@H](c1ccc(Cl)cc1)c1ccccn1 | inactive: -30.5%
CCCc1cc(N2CCN(c3cccc(C)c3C)CC2)n2cnnc2n1 | inactive: -22%
Cc1cc(C)c(NC(=O)CSc2nccn2-c2cccc(Cl)c2)c(C)c1 | inactive: -29.8%
COc1ccc(CNC(=O)CCC2N=C3c4ccccc4N=C(SCc4ccccc4F)N3C2=O)cc1 (configuration not stated) | inactive: -0.709%
COC(=O)c1ccc(NC(=O)CN2CCN(S(=O)(=O)c3ccc(Br)cc3)CC2)cc1 | inactive: -15.5%
COc1ccc(S(=O)(=O)N(CC(=O)Nc2cc(C)ccc2OC)Cc2ccccc2)cc1 | inactive: -5.07%
CCOc1ccccc1NS(=O)(=O)c1ccc2[nH]c3c(c2c1)CCCCC3 | inactive: -45.6%
Cc1ccc(Cn2c(=O)n(-c3ccc(C)cc3)c(=O)c3c2c2cc(C)ccc2n3C)cc1 | inactive: -12%
CCOc1ccc(CCNC(=O)c2cc3c(=O)n(C)c4ccccc4c3n2C)cc1OCC | inactive: -19.8%
Cc1c(-c2ccc(Cl)cc2)c(=O)oc2c(CN3CCN(CCO)CC3)c(O)ccc12 | inactive: -23.3%
O=C(CSc1cn(CC(=O)N2CCCCC2)c2ccccc12)NCc1ccc(F)cc1 | inactive: -19.2%

Compound | activity change, positive = activation
C[C@@H]1CC(=O)NN=C1c1ccc(NN=C(C#N)C#N)cc1 | inactive
N#C/C(=C\c1cccc(F)c1)c1nc(-c2cc3c(ccc4ccccc43)oc2=O)cs1 | inactive: -2.86%
CCOc1cc(C2c3c(oc4cc(C)cc(C)c4c3=O)C(=O)N2CCO)ccc1O (configuration not stated) | inactive: -1.32%
CSc1cccc(NC(=O)C2CCCN(C(=O)c3cnn(-c4ccc(F)cc4)c3-n3cccc3)C2)c1 (configuration not stated) | inactive: -34.3%
CCOc1ccc(CNC(=O)C2CCN(C(=O)N3CC(CC)Oc4ccccc43)CC2)cc1 (configuration not stated) | inactive: -37%
Cc1c(Cl)cccc1NC(=O)N1CCOc2ccccc21 | inactive: 3.05%
COC(=O)c1sccc1S(=O)(=O)N1CCN(c2ccc(C)cc2C)CC1 | inactive: -16.4%
Cc1ccc(OCC(=O)Nc2ccc3nc(SCC(=O)Nc4ccc(C)cc4C)sc3c2)cc1 | inactive: -5.27%
CCCNC(=O)c1ccccc1NC(=O)c1nsc2ccccc12 | inactive: 17.2%
COc1cccc(NC(=O)CSc2ncc3c(n2)-c2ccc(Cl)cc2N(C)S3(=O)=O)c1 | inactive: -13.4%
CC(C)(C)c1ccc(C(=O)NC2(C(F)(F)F)NC(=O)N(CCc3ccccc3)C2=O)cc1 (configuration not stated) | inactive: -22.5%
CCOc1ccccc1NC(=O)C(=O)NCCc1sc2nc(-c3ccc(OC)cc3)nn2c1C | inactive: -2.18%
Cc1ccc(NC(=O)NCCOCCn2c(=O)oc3ccccc32)cc1C | inactive: -10.2%
CCOc1ccc(CNC(=O)c2ccccc2NC(=O)c2nsc3ccccc23)cc1 | inactive: 9.54%
CCc1cccc(NC(=O)c2cc3c(s2)-c2ccccc2OC3)c1 | inactive: 2.85%
Cc1cc(C)c(NC(=O)C(=O)NCC(c2cccnc2)N2CCN(c3ccccc3F)CC2)c(C)c1 (configuration not stated) | inactive: -24.4%
O=C(CN1C(=O)c2cccc3cccc1c23)Nc1cccc(F)c1 | inactive: -21.1%
CC(=O)Nc1cccc(NC(=O)CSc2nccn2C2CCCC2)c1 | inactive: -1.37%
CN(Cc1ccccc1)c1ccc(-c2nc(-c3ccccc3)no2)cc1[N+](=O)[O-] | inactive: 4.57%
C=Cc1ccc(Cn2c(C)c(CNCc3ccc(SC)cc3)c(C(=O)O)c2C)cc1 | inactive: -20%
COC(=O)c1ccc2c(=O)n3nc(Nc4cc(OC)ccc4OC)sc3nc2c1 | inactive: 2.01%
Cc1ccccc1NC(=O)CSC1=Nc2ccccc2C2=NC(Cc3ccccc3)C(=O)N12 (configuration not stated) | inactive: 7.27%
Cc1ccc(OCc2nc(C#N)c(NCCc3ccccc3)o2)cc1 | inactive: -16.6%
